ChEMBL document CHEMBL4888484, “Replenishing the malaria drug discovery pipeline: Screening and hit evaluation of the MMV Hit Generation Library 1 (HGL1) against asexual blood stage Plasmodium falciparum ,using a nano luciferase reporter read-out” (2022)
The campaign covered roughly 150,000 compounds. About 540 (0.36%) showed an effect of 50% or more. The list shows a part of the results.

Test system: Plasmodium falciparum
Assay: Primary screen in NF54 nanoGlo assay, in single point, at 2uM, 72h; a lower Z score goes with more inhibition
Assay type: functional, Erythrocyte
Conditions: timepoint 72 hour

SMILES	% Inhibition	Z score
O=c1ccc(C(F)(F)F)cn1Cc1cc(Cl)cc2c1OCOC2	-4%	0.51
Cc1nc([C@H]2CCN(Cc3ccc(Cl)s3)C2)n[nH]1	-2%	0.23
Cc1c(C)c2c(c(C)c1NC(=O)N1CCOC[C@@H](O)C1)NC(=O)CO2	-3%	0.51
CC[C@@H](CNc1cc(NC2CC2)ncn1)C(=O)O	-7%	1.58
Brc1cc(-c2nc(-c3cnccn3)no2)co1	-5%	0.57
C=CCOc1ccccc1CN(CC)C(=O)[C@@H](C)N	16%	-2.07
COCCN1CCC(CN(Cc2nc3ccccc3n2C)C[C@H]2CCCO2)CC1	4%	-0.8
CCN(Cc1ccccc1)C(=O)[C@@H]1CCCCC(=O)N1Cc1cccc(OC)c1	0%	0.02
COCc1cccc(CC(=O)Nc2cc(C)c(C)nn2)c1	-8%	1.6
OCc1csc(N2CCC(c3nccn3Cc3ccccc3)CC2)n1	-4%	0.71
CCCn1nnnc1CN1CCCC(C2(C)NC(=O)NC2=O)C1 (configuration not stated)	-1%	0.12
CCc1nc(-c2cc(NC(=O)COc3ccc(Cl)cc3C)c(C)s2)no1	4%	-0.48
Cc1cnc(N)nc1N[C@H]1C[C@@H]1c1ccccc1	-3%	0.6
CCN(CCC(=O)N1CCCCC1)C(=O)c1cnc(C)cn1	-12%	1.23
CCc1ccccc1NC(=O)C(C)(C)CC	-19%	2.49
COC(=O)C1(NC(=O)C2CC23CCOC3)CCOC1 (configuration not stated)	-8%	1.23
CCOC(=O)N1CCc2c(nc(-c3ccc(C)cc3)n(CC(=O)NCc3ccc(Cl)cc3)c2=O)C1	27%	-3.09
COc1ccc(C(=O)Nc2c(-c3cccc4ccccc34)c(=O)c3ccccc3n2C)cc1	-5%	0.63
CCOc1ccccc1CN1CCC(=O)N(CC)C2(CCOCC2)C1	-14%	1.81
COCCOC(=O)NC[C@@H]1C[C@H](F)CN1C(=O)c1scc2c1OCCO2	2%	-0.27
O=C(CCc1nc2ccccc2s1)N1CCN(S(=O)(=O)c2ccc(Br)cc2)CC1	-16%	3.08
CCNc1ncc(S(=O)(=O)NC[C@H]2CCOC2)cc1Cl	12%	-1.38

SMILES	% Inhibition	Z score
O=C(c1ccc(Cl)cc1Cl)N1C2CCC1COC2	-12%	1.4
Cc1noc2ncnc(NC3CCCC3)c12	-4%	0.62
O=C(Cc1ccc(Cl)cc1)N1CC2(C[C@H](N3CCCC3)CO2)C1	-3%	0.69
CC(C)Oc1ccccc1CNC[C@H]1CCCN(C)C1	3%	-0.43
CCCc1nc(NCCc2nnc(N)s2)c2cnn(C)c2n1	-2%	0.31
COc1ccc(F)cc1-c1ncnc2[nH]cnc12	3%	-0.48
CCN(Cc1ccccn1)Cc1nnc(C)n1C	-7%	0.79
CCOC(=O)c1c(C)n(CCc2c[nH]c3ccccc23)c(C)cc1=O	-11%	1.43
COc1cc(OC)c(C(=O)N2CC[C@H](CO)[C@@H](O)C2)cc1OC	-14%	1.82
CC(C)[C@H](CCC(=O)NC1CCCCC1)C(=O)O	-6%	0.71
Cc1ccc(S(=O)(=O)Nc2cccn3nc(C4CCC4)nc23)cc1C	-13%	1.46
Cc1noc(C)c1CC(=O)N1CCC[C@H]1c1ncc(C)n1Cc1ccncc1	7%	-0.97
CCCN(Cc1nnc(-c2cccs2)o1)Cc1nc2cc(S(=O)(=O)N(C)C)ccc2n1CC	1%	-0.2
O=C(Cc1ccsc1)N[C@@H](CN1C(=O)COC1=O)c1ccccc1	-10%	1.52
Cc1nc(N(C)Cc2ccncc2C)c2sccc2n1	-3%	0.56
O=C(CN1C(c2ccc(Cl)cc2)=C[C@@H](c2ccccc2)n2nnnc21)NC1CCCCC1	-21%	2.12
COc1ccc2cc1OCC(=O)N[C@@H](C)C(=O)N(C)CCCCN(C(=O)Cc1ccc(F)cc1Cl)CCCNC(=O)CC2	1%	-0.2
COCCc1noc(-c2ccc(C)cc2C)n1	-13%	1.64
Cc1nc(-c2ccc(-c3noc(C4CCC4)n3)cc2)cs1	-18%	1.78
CCC1CN(C(C)c2nc(C)cc(O)n2)CCN1CC(F)F (configuration not stated)	-2%	0.15
COc1ccc(C(=O)N2CCN(c3ncnc4onc(C)c34)CC2)cc1	-10%	1.87
c1ccc2nc(NCc3cn4ccsc4n3)cnc2c1	-17%	2.83

SMILES	% Inhibition	Z score
Cc1ccc(C(CNC2CCCC2(C)C)N2CCCC2)o1 (configuration not stated)	5%	-0.66
O=C(c1cccc(NS(=O)(=O)c2c[nH]c(C(=O)N3CCCC3)c2)c1)N1CCC[C@H](O)C1	7%	-1.08
Cc1cc(NC(=O)Cc2ccsc2)no1	-3%	0.51
CCC[C@]1(CO)CCCN(C(=O)c2n[nH]c3c2CCCC3)C1	10%	-1.3
Cc1c(NC(=O)N[C@@H](Cc2ccccc2)c2ncco2)nnn1C	-4%	0.44
Clc1cccc(C2(c3nc(C4CCCC4)no3)CCOCC2)c1	-17%	2.13
COc1cc(C(=O)NCc2c(C)cc(C)[nH]c2=O)ccn1	-10%	1.34
COc1ccccc1/C=C/CN1CCC[C@H](CCC(=O)N2CCN(c3ccccn3)CC2)C1	1%	-0.13
Cc1noc(C)c1CCC(=O)Nc1cc(S(=O)(=O)N2CCOCC2)ccc1N1CCOCC1	-17%	1.75
COc1ncccc1C(=O)NC[C@H](C)N1CCCC1	3%	-0.42
N#Cc1cccc(NC(=O)COc2ccc(C(=O)c3ccc(Cl)cc3)cc2)c1	-23%	3.1
C[C@H]1COCCN1C(=O)c1cc2ccccc2n1C	-12%	1.21
O=C([C@@H]1CCCN1C(=O)Nc1ccccc1)N1CCc2ccccc2C1	-5%	0.41
CN1CCN(CCN2C(=O)c3ccc(-c4ccco4)n3C[C@@]2(C)C(=O)NC2CCCCCC2)CC1	-17%	1.69
Cc1cc(NC(=O)c2ccc(C(=O)N3CCOCC3)cc2)nc(C)n1	9%	-1.69
CCC(NC(=O)C1CCCN1C(=O)c1ccco1)c1cnn(CC)c1 (configuration not stated)	-6%	0.9
CCCN(CC(=O)NC)C(=O)c1ccc(C)c(Br)c1	1%	-0.13
Cc1cc(O)cc(NS(=O)(=O)c2cnn3c2OCC(C)(C)C3)c1	-10%	0.98
COc1ccc2c(c1)N1CCN(c3ccccc3Cl)CC1C(C(=O)N1CCN(C(C)=O)CC1)C2 (configuration not stated)	-5%	0.56
Cc1c(C(=O)N2CCNCC2)cccc1N1CCNC1=O	10%	-1.23
O=C(C[C@H]1C(=O)NCCN1CC1CCCCC1)NCc1ncc[nH]1	-2%	0.21
CCN(CC)C(=O)CCNC(=O)c1snnc1C	-7%	0.79

SMILES	% Inhibition	Z score
O=C(c1nnc(Cc2c(F)cccc2Cl)o1)N1CCCC1	-6%	1
Cc1nc(-c2ccco2)ccc1C(=O)N[C@@H](C)C(=O)N1CCOCC1	5%	-0.78
CN1CCc2nc(-c3ccco3)nc(NCc3ccco3)c2CC1	-16%	1.48
CCN1c2cc(C(=O)Nc3cccc(OC)c3)ccc2C(=O)N2CCC[C@@H]21	-2%	0.26
Cc1nnc(CN(Cc2nccs2)C2CC2)s1	-15%	2.01
Cc1nc(C)c(CCN[C@@H](C)c2cn3ccccc3n2)s1	-5%	0.56
Cc1cc(-n2ccnc2)ccc1CN(C)CCn1cccn1	0%	-0.03
COc1cccc(CNS(=O)(=O)c2cc(-c3cc(C)no3)ccc2C)c1	-4%	0.48
O=C(c1cncc(Br)c1)N1CC[C@H](c2nc(C3CCOCC3)no2)C1	35%	-0.93
Cc1ccc(C2CC(C)CCN2C(=O)NC2CCC(=O)N(C)C2)o1 (configuration not stated)	-5%	0.44
CCc1n[nH]c(NC(=O)CCc2ccccn2)c1Br	-6%	1.1
O=C(NCCCc1ccccc1)c1n[nH]c2c1CN(C(=O)c1ccccc1F)CC2	4%	-0.69
O=C1CNC2(CCN(S(=O)(=O)c3ccc(Cl)cc3)CC2)N1Cc1ccc(F)cc1	6%	-0.81
CC1CC(C(=O)NCc2cocn2)(c2cccc(Cl)c2)C1 (configuration not stated)	-3%	0.36
Cc1nc2cc(C(=O)OCC(=O)N(C)CC(=O)Nc3ccc(F)cc3)ccc2n1-c1ccccc1	-38%	4.45
C[C@@H](CC(=O)Nc1c[nH]c(=O)[nH]c1=O)c1ccccc1	-9%	0.99
O=C(Nc1ccc2ccccc2c1)N1CCCCCC1	1%	-0.23
COc1ccc(CC(=O)NO)cc1OC	-14%	1.15
Cc1cc(C)c(CN2CC[C@H](CNC(=O)c3cncnc3)C2)cc1C	-4%	0.57
CCn1nc(C)c(CC(=O)N2Cc3ccccc3N(C)C[C@@H]2C)c1C	-6%	0.92
